# Measurements published in PubChem BioAssay AID493208 (National Center for Advancing Translational Sciences (NCATS), 2011).
# Among all 44,000 compounds or so, about 340 (0.77%) were called active. Roughly 5% stayed inconclusive and do not appear here. Calls come from the whole dose curve; as a rule, active = well fitted inhibition curve with a large enough effect; inconclusive = small, poorly fitted or top-dose-only effect; inactive = flat fitted curve, though single readings scatter. The list shows a part of the results.
# Assay: Acumen qHTS Assay for Inhibitors of the mTORC1 Signaling Pathway in MEF (Tsc2-/-, p53-/-) Cells: Sytravon;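 note: plate controls were DMSO for no effect and rapamycin for full effect; nearly all actives have a fitted effect of over 50% in size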
# Conditions: phospho-rpS6 immunofluorescence/PI, 24 h; series mostly up to 38.3 µM; activity change, negative = inhibition: at the top concentration
# How it was run: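 Compounds act on Tsc2-/-, p53-/- fibroblasts carrying an empty vector for 24 h before fixation and dual staining for phospho-S6 and DNA (propidium iodide). Values are percentages of cells above a rapamycin-defined pS6/PI threshold.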
row,SMILES,"activity change, negative = inhibition"
1,Cc1ccccc1C(=O)Nc1cccc(C(=O)OCc2cc(=O)n3c(C)csc3n2)c1,inactive: 0%
2,CCOc1ccc2oc(=O)cc(CN3CCN(C(=O)c4cccc(Cl)c4)CC3)c2c1,inactive: 2.76%
3,Cc1ccc(C)c(Nc2nn3c(=O)c4ccc(C(=O)N(C)Cc5ccccc5)cc4nc3s2)c1,inactive: -2.32%
4,CCOC(=O)c1sc2ncn(CC(=O)Nc3cc(C)cc(C)c3)c(=O)c2c1C,inactive: -0.644%
5,COC(=O)c1ccccc1NC(=O)Cn1c(=O)cc(-c2ccccc2)c2c(C)nn(C)c21,inactive: 2.43%
6,O=C(NCc1ccccc1F)c1cc2ccccn2n1,inactive: -7.28%
7,Cc1ccc(CN2CCc3nc(N4CCN(c5ccccc5F)CC4)ncc3C2)s1,inactive: 0%
8,Cc1ccc2oc(=O)c3cc(C(=O)NCc4ccc(Cl)cc4)sc3c2c1,inactive: 0.88%
9,Cc1ccc(NC(=O)C2CCCN2S(=O)(=O)c2cccc3nsnc23)c(Br)c1 (stereo not drawn),inactive: 4.88%
10,COc1ccc(CNC(=O)c2ccc(NC(=O)N3CCCCc4ccccc43)cc2)c(OC)c1,inactive: -10%
11,Cc1cc(SCC(=O)NCc2ccccc2Cl)nc(=O)[nH]1,inactive: 2.49%
12,Cc1cccc(-c2nc(C)c(CCNC(=O)C(=O)Nc3c(C)cc(C)cc3C)s2)c1,inactive: -4.09%
13,COc1ccc(-c2csc3nc(-c4ccc(F)cc4)oc(=O)c23)cc1OC,inactive: -0.118%
14,Cc1ccc(-c2noc(CSc3nnc(C)n3-c3ccc(F)cc3)n2)cc1,inactive: -6.06%
15,Cc1cccc(C)c1NC(=O)CCS(=O)(=O)c1ccc2c(c1)n(C)c(=O)c(=O)n2C,inactive: -3.69%
16,Cc1cc(O)c(C(c2ccccc2)N2CCN(c3ccccc3F)CC2)c(=O)n1Cc1ccco1 (stereo not drawn),inactive: 6.69%
17,CCC(=O)N1CCc2cc(Br)cc(S(=O)(=O)CCC(=O)NCc3ccc(C)cc3)c21,inactive: 1.07%
18,COC(=O)c1sc(S(=O)(=O)N2CCN(c3ccc(OC)cc3)CC2)c(C(=O)OC)c1C,inactive: -19.9%
19,COc1ccc(CNC(=O)C(=O)Nc2ccccc2OC)cc1,inactive: 5.44%
20,COc1ccc(OC)c(NC(=O)CSc2nccn2-c2cc(C)cc(C)c2)c1,inactive: -1.47%
21,CC(=O)Nc1c(C)nn(-c2ccccc2)c1N1CCC(C(=O)Nc2ccc(Cl)cc2C)CC1,inactive: -16.3%
22,COc1cc(NC(=O)CN2C(=O)C(c3ccc(C)cc3)=NC23CCCCCC3)cc(OC)c1,inactive: -5.32%
23,Cc1ccc(-c2nc3ccccc3[nH]2)cc1NC(=O)COc1ccc(Cl)cc1Cl,inactive: -1.45%
24,COc1ccc(N2CCN(C(=O)CCc3nnc4n(C)c(=O)c5sccc5n34)CC2)cc1,inactive: -11.2%

row,SMILES,"activity change, negative = inhibition"
1,COc1ccc(-n2c(=O)c3ccc(C(=O)NCc4ccc(C)cc4)cc3n(Cc3ccc(F)cc3Cl)c2=O)cc1,inactive: -3.65%
2,CC1(C)N=C(c2ccc(F)cc2)C(=O)N1CC(=O)Nc1ccccc1Cl,inactive: -0.808%
3,CCCC(=O)Nc1nc2c(s1)CC(C(C)(C)C)CC2 (stereo not drawn),inactive: -0.807%
4,Cc1ccc(Cn2c3ccccc3c3cnn(CC(=O)N4CCCCCC4)c(=O)c32)cc1,inactive: -14.7%
5,Cc1ccc(CN2C(=O)CC(c3ccc(Cl)cc3)c3c(C)nn(-c4nc(C)cc(C)n4)c32)cc1 (stereo not drawn),inactive: -3.78%
6,COc1ccc(-n2nc3c(c2NC(=O)C(=O)NCc2ccccc2)CSC3)cc1,inactive: -0.139%
7,COC(=O)c1cc2oc(C)cc2n1CC(=O)Nc1ccc(OC)c(OC)c1,inactive: 0.0582%
8,COC(=O)c1ccc(NC(=O)CSc2nccn2Cc2ccc(Cl)cc2)cc1,inactive: -0.553%
9,CCOc1ccc(-n2c(=O)c3c(C)c(C)sc3n(Cc3c(F)cccc3Cl)c2=O)cc1,inactive: 7.79%
10,COc1ccc(N2C(=O)CS(=O)(=O)C23C(=O)N(Cc2ccccc2)c2ccccc23)cc1 (stereo not drawn),inactive: 6.04%
11,COc1cccc(-c2nc(S(=O)(=O)c3ccc(C)cc3)c(NCc3ccccc3)o2)c1,inactive: -17.7%
12,Clc1cccc(N2CCN(c3nc4ccccc4c4nc(-c5ccccc5)nn34)CC2)c1,inactive: 0.382%
13,CCOc1ccc(-c2nc(CSCC(=O)NCCc3ccccc3)c(C)o2)cc1,inactive: 3.17%
14,COc1cccc(CNC(=O)CCCn2c(=O)c3cccn3c3ccc(F)cc32)c1OC,inactive: 5.37%
15,Cc1cc(C)cc(NC(=O)Cn2c(=O)n(CCC(C)C)c(=O)c3cccnc32)c1,inactive: -7.3%
16,Cn1c(=O)cc(SCC(=O)NCCc2ccc(Cl)cc2)c2cc(Cl)ccc21,inactive: -0.44%
17,COc1ccc(-c2cc(C(C)=O)c(C)n2CCC(=O)Nc2cccc(C)c2C)cc1,inactive: -0.504%
18,O=C(CSc1nc2ccccc2c2nc(-c3ccccc3)nn12)Nc1ccc(F)cc1,inactive: -1.65%
19,O=C(Cn1c2ncccc2c(=O)n1-c1ccccc1)Nc1cccc(C(F)(F)F)c1,inactive: -6.75%
20,CCc1cccc(NC(=O)Cn2c(=O)n(Cc3ccccc3)c(=O)c3c(C)c(C(=O)N(C)C)sc32)c1,inactive: -1.79%
21,CCOc1ccccc1N(C)C(=O)c1cc(S(=O)(=O)NCc2ccc(C)cc2)ccc1F,inactive: -11.6%
22,CN1CCN(C(=O)c2cnn(-c3ccccc3)c2C2CCN(C(=O)OC(C)(C)C)CC2)CC1,inactive: 5.06%
23,CCc1nnc(SC(CC)C(=O)NCCOC)c2cc3occc3n12 (stereo not drawn),inactive: -8.39%
24,CCc1nn2c(=O)cc(COC(=O)c3cccc(NC(=O)COc4ccccc4F)c3)nc2s1,inactive: 0%

row,SMILES,"activity change, negative = inhibition"
1,COc1ccc(Cl)cc1NC(=O)c1cc(=O)c2cc(C)cc(C)c2o1,inactive: -5.69%
2,Cc1ccc(C)c(NC(=O)Cn2cc(S(=O)(=O)N3CCCC3)c(S(=O)(=O)N3CCCC3)c2)c1,inactive: -16.9%
3,Cc1cccc(NC(=O)CSc2nc(C)cc(C)c2C(=O)Nc2ccc(Cl)cc2)c1,inactive: 0%
4,CCC(=O)C1=C(c2cccc([N+](=O)[O-])c2)N(C(=O)CC)n2c(nnc2C2CCCCC2)S1,inactive: -3.02%
5,CCc1ccc2c(c1)c(=O)c(S(=O)(=O)c1ccccc1)cn2CC(=O)Nc1cc(C)ccc1C,inactive: -13.9%
6,COc1cc(NC(=O)CN(C)S(=O)(=O)c2ccc3c(c2)CCCC(=O)N3)cc(OC)c1OC,inactive: -3.11%
7,Cc1ccc(CCNC(=O)Cn2ncc3c(=O)oc4ccccc4c32)cc1,inactive: -11%
8,Cc1ccccc1-c1nc(CS(=O)(=O)CC(=O)Nc2c(C)cccc2C)c(C)o1,inactive: -11.5%
9,Cc1cccc(-c2nc3c4ccccc4n(CC(=O)Nc4cccc(F)c4)c(=O)n3n2)c1,inactive: -0.454%
10,CC(C)(C)OC(=O)N1CCC(c2c(C(=O)N3CCN(c4ccccc4F)CC3)cnn2C(C)(C)C)CC1,inactive: -6.78%
11,CCOC(=O)C1CCN(c2csc3ccc(C)cc3c2=O)CC1,inactive: 0.323%
12,COC(=O)c1cc2sc(C)cc2n1Cc1nc(-c2cccc(Br)c2)oc1C,inactive: -2.69%
13,N#C/C(=C/c1ccccc1Cl)c1nc(-c2cc3ccccc3oc2=O)cs1,inactive: 1.88%
14,COc1cc(C)ccc1OCCSc1nc2ccc(NC(=O)c3ccccc3F)cc2s1,inactive: -2.28%
15,O=C(Cn1c(=O)n(CC2CCCO2)c(=O)c2ccccc21)Nc1ccc(F)cc1F (stereo not drawn),inactive: -7.65%
16,COC(=O)c1cc(NC(=O)Cn2nc(-c3ccccc3)c3c(c2=O)CCCC3)cc(C(=O)OC)c1,inactive: 0.307%
17,Fc1ccc(NCc2ccccc2-c2nnc(-c3ccccc3Cl)o2)cc1Cl,inactive: -29.2%
18,Cc1cccc2cc(-c3nc(-c4cccs4)no3)c(=O)oc12,inactive: -5.61%
19,Cc1sc2ncn(CC(=O)N3CCN(c4cccc(Cl)c4)CC3)c(=O)c2c1S(=O)(=O)N1CCC(C)CC1,inactive: 0%
20,CCOc1ccc(C(c2c(O)cc(C)n(CCOC)c2=O)N2CCN(c3ccc(F)cc3)CC2)cc1 (stereo not drawn),inactive: -1.23%
21,CCOc1ccc(-n2c(=O)c3c(C)c(C)sc3n(Cc3ccc(C(C)(C)C)cc3)c2=O)cc1,inactive: -10.3%
22,CC(=O)N1CCc2c(sc3c2c(=O)n(-c2cc(Cl)ccc2C)c(=O)n3C)C1,inactive: -2.8%
23,CCN(CC)C(=O)Cn1c(=O)n(CCCCCC(=O)NCc2ccc(C)cc2)c(=O)c2sccc21,inactive: -2.04%
24,CCCCNC(=O)Cn1nc(N2CCN(c3ccccc3OC)CC2)ccc1=O,inactive: 4.21%

row,SMILES,"activity change, negative = inhibition"
1,COc1ccc(Cl)cc1NC(=O)COc1cccc2c(=O)n(C)ccc12,inactive: -3.26%
2,COC(=O)c1ccc(NC(=O)CN(C)S(=O)(=O)c2ccc3c(c2)CCCC(=O)N3)cc1,inactive: -3.9%
3,COc1cccc(C(=O)N2CCc3cc(OC)c(OC)cc3C2COc2ccc3c(C)cc(=O)oc3c2)c1 (stereo not drawn),inactive: -5.77%
4,CCn1cc(S(=O)(=O)c2cc(C)cc(C)c2)c(=O)c2cc(F)c(N3CCN(c4ccccc4)CC3)cc21,inactive: -0.617%
5,CCCCN(C(=O)CCn1c(=O)oc2ccccc21)c1ccccc1,inactive: 9.12%
6,COc1ccc(OCC(=O)N2CCN(C(=O)c3cccc(OC)c3OC)CC2)cc1,inactive: 5.22%
7,CCOc1ccc(-c2cc(CCCC(=O)NCCc3ccc(SC)cc3)no2)cc1,inactive: -13.6%
8,COCCn1c(C)cc(O)c(C(c2ccccc2Cl)N2CCN(c3ccccc3)CC2)c1=O (stereo not drawn),inactive: 3.77%
9,CCN(CC)C(=O)c1sc2c(c1C)c(=O)n(Cc1ccccc1)c(=O)n2Cc1c(C)cc(C)cc1C,inactive: -20.5%
10,O=C(NCC(c1ccco1)S(=O)(=O)c1cccs1)c1c(F)cccc1F (stereo not drawn),inactive: 2.46%
11,Cc1cccc(NC(=O)Cn2c(=O)n(CC3CCC(C(=O)NCCc4ccccc4)CC3)c(=O)c3ccccc32)c1C (stereo not drawn),inactive: -1.02%
12,CCOC(=O)c1ccc(NC(=O)c2c(NCc3ccc(OC)c(OC)c3OC)sc3c2CCC(C)C3)cc1 (stereo not drawn),inactive: -0.196%
13,O=C(NCC(c1cccnc1)N1CCc2ccccc21)c1cccc(F)c1 (stereo not drawn),inactive: -0.225%
14,Cc1nn(-c2ccc(N3CCCC3)nn2)c(C)c1CCC(=O)N1CCN(c2ccc(F)cc2)CC1,inactive: -5.79%
15,Cc1ccc(NS(=O)(=O)c2ccc3[nH]c4c(c3c2)CCCCCC4)cc1C,inactive: -14.5%
16,CCOc1ccccc1CNC(=O)CCCn1c(=O)c2cccn2c2ccc(F)cc21,inactive: 7.52%
17,Cc1ccc(CNC(=O)c2cc(NS(=O)(=O)c3ccc(C)cc3)ccn2)cc1,inactive: 0.971%
18,CCOC(=O)c1cc(S(=O)(=O)N(C)c2ccccc2)[nH]n1,inactive: 4.08%
19,CCOc1ccc(S(=O)(=O)Nc2ccc3c(c2)CCCN3S(=O)(=O)c2ccc(C)cc2)cc1,inactive: 0%
20,Cn1c(C(=O)NCc2ccccc2F)cc2cc(S(=O)(=O)N3CCCCC3)ccc21,inactive: 2.74%
21,COC(=O)c1sc2cccc(F)c2c1S(=O)(=O)NCc1ccccc1Cl,inactive: -4.87%
